Data reported in PubChem BioAssay (NCATS).
Values joined by “and” are separate entries in the source; they are usually repeats but may differ in a detail not shown here. Identical values can stand only once. The inconclusive results got no clear call from the source; some entries with a clear call stand among them for comparison. For some of these results: A potency beside an inconclusive call is a rough fit, not a confirmed value. Active and inactive are the calls of the source. Unless noted, calls come from the whole dose curve; as a rule, active = well fitted activation curve with a large enough effect in the main read-out, with a control signal flat (not every such curve was filed as active); inconclusive = small, poorly fitted or top-dose-only effect, or effect the other way, or a change in a side signal; inactive = flat fitted curve, though single readings scatter.
Potency is the fitted concentration of half-maximal effect; tags give direction and shape of the fitted curve.

Test system: not listed separately
Assay: Cell Viability - Renal Proximal Tubule (AID 545; active = well fitted cell-killing curve with a large enough effect; inconclusive = small, poorly fitted or top-dose-only effect;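 note: cells exposed to compound for 40 hours; nearly all actives have a fitted effect of over 40% in size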;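 for activity change, negative = cytotoxicity: 0% = DMSO only and -100% = 100 µM tamoxifen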)
Settings: renal proximal tubule cells viability; activity change, negative = cytotoxicity: at 91.7 µM (top of the series) unless noted
Method in brief: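 Viability taken as intracellular ATP (CellTiter-Glo luminescence) after 40 hr, 37 °C compound treatment of primary proximal tubule cells from rat kidney, 1000 cells/well; Hill-equation fits of qHTS concentration-response data gave AC50.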
With `CCOCCOC(C)=O` the activity change, negative = cytotoxicity was inactive: -3.4% [at 91.7 µM, primary cells of rat origin].
For `O=C(CCl)c1ccc(Cl)cc1Cl`, the activity change, negative = cytotoxicity was inconclusive: -72.6%.
In the case of `N[C@@H](Cc1ccc(N(CCCl)CCCl)cc1)C(=O)O`, the activity change, negative = cytotoxicity is reported as active: -104%.
With `O=CC=O` the activity change, negative = cytotoxicity was inactive: -3.14% [at 91.7 µM, primary cells of rat origin].
With `Nc1ccc([N+](=O)[O-])cc1` the activity change, negative = cytotoxicity was inactive: -9.45%.
For `CC(=O)[O][Hg][c]1ccccc1`, the Potency was active: 0.631 µM.

Test system: not listed separately
Assay: Cell Viability - Mesenchymal (AID 546; active = well fitted cell-killing curve with a large enough effect; inconclusive = small, poorly fitted or top-dose-only effect;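 note: cells exposed to compound for 40 hours before reading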;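 for activity change, negative = cytotoxicity: 0% = DMSO only and -100% = 100 µM tamoxifen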)
Settings: mesenchymal cells viability, qHTS; activity change, negative = cytotoxicity: at 91.7 µM (top of the series)
Method in brief: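 AC50 values reflect the drop in intracellular ATP in a human kidney mesenchymal line derived from normal glomeruli. Treatment lasts 40 hr at 37 °C in complete medium, and the signal comes from CellTiter-Glo luminescence.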
With `CN1C[C@H](C(=O)N[C@]2(C)O[C@@]3(O)[C@@H]4CCCN4C(=O)[C@H](Cc4ccccc4)N3C2=O)C=C2c3cccc4[nH]cc(c34)C[C@H]21` the activity change, negative = cytotoxicity was inconclusive: -37.6%.
In the case of `N[C@@H](Cc1ccc(N(CCCl)CCCl)cc1)C(=O)O`, the activity change, negative = cytotoxicity is reported as inconclusive: -44.4%.
With `O=C1C2CC=CCC2C(=O)N1SC(Cl)(Cl)Cl` (configuration not stated) the Potency was active: 25.1 µM and active: 20 µM.

Biological target: 3',5'-cyclic-AMP phosphodiesterase 4B (Homo sapiens) (UniProt Q07343)
UniProt Q07343, sequence (Q07343 whole entry, looked up): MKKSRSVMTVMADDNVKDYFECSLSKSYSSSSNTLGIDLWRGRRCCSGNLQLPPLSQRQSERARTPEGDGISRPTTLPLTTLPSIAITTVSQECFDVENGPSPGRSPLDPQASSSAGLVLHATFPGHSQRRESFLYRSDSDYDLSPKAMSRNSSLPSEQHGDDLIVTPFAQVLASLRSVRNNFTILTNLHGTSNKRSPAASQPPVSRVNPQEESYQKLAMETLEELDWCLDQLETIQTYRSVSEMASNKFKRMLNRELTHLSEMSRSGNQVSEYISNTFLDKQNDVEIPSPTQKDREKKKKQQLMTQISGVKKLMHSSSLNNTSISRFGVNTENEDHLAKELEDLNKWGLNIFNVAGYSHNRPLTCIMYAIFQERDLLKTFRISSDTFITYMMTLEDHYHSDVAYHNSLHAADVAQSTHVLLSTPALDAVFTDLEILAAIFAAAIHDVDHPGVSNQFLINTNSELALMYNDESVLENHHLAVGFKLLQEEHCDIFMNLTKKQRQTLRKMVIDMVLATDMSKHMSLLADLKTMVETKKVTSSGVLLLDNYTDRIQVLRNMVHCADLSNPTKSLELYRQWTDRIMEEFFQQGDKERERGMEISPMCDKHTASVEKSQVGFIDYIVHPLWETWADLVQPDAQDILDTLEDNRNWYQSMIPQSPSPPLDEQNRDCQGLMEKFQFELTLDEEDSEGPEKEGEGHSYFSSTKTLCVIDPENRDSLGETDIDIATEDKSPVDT
Assay: qHTS Assay for Inhibitors of PDE-IV (AID 607); for activation (PDE inhibition): % of control where 0% means no effect
Settings: HEK293 ACTOne CNG channel cells, membrane potential fluorescence; activation (PDE inhibition): at 22.9 µM (top of the series)
Method in brief: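 Live HEK293 cells with a modified cyclic nucleotide-gated (CNG) channel report intracellular cAMP via membrane-potential dye fluorescence (ex 535/em 590 nm). Endogenous PDE-IV was targeted. Compounds were tested at up to 22.9 uM final; RO 20-1724 100 uM served as control.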
With `CCC(=O)O[C@H]1CC[C@H]2[C@@H]3CCC4=CC(=O)CC[C@]4(C)[C@H]3CC[C@]12C` the Potency was inconclusive: 15.1 µM [activator, single point].
In the case of `NN=C(N)N`, the Potency is reported as “inactive”.
In the case of `CN[C@@H]1C[C@@H](c2ccc(Cl)c(Cl)c2)c2ccccc21`, the “activation (PDE inhibition)” value is reported as inactive: 28.5%.
In the case of `CN(C)CCN(C)CCc1ccc(Cl)c(Cl)c1`, the Potency is reported as inconclusive: 9.51 µM [activator, partial curve, poor fit].
With `O=c1[nH]c2ccccc2n1CCCN1CCC(n2c(=O)[nH]c3cc(Cl)ccc32)CC1` the Potency was inconclusive: 15.1 µM [activator, single point].
For `CC[C@@]1(O)C(=O)OCc2c1cc1n(c2=O)Cc2cc3ccccc3nc2-1`, the Potency was inconclusive: 19 µM [inhibitor, single point].
In the case of `Fc1ccc(C(OCCN2CCN(CCCc3ccccc3)CC2)c2ccc(F)cc2)cc1`, the Potency is reported as inconclusive: 15.1 µM [activator, partial curve, poor fit].
For `Clc1cccc(SC2CCNCC2)n1`, the Potency was inconclusive: 15.1 µM [activator, single point].
With `Cc1ncsc1CCCl` the Potency was inconclusive: 15.1 µM [inhibitor, single point].
With `c1ccc(CCCN2CCN(CCOC(c3ccccc3)c3ccccc3)CC2)cc1` the Potency was inconclusive: 15.1 µM [rising, partial curve, poor fit].
For `O=C1NCN(c2ccccc2)C12CCN(CCCOc1ccc(F)cc1)CC2`, the Potency was inconclusive: 0.19 µM [rising, full curve, poor fit].
For `NCCc1ccc(O)cc1`, the “activation (PDE inhibition)” value was inactive: -0.14%.
With `CC1=NN=C(c2ccc(N)cc2)c2cc3c(cc2C1)OCO3` the Potency was inconclusive: 9.51 µM [activator, partial curve].
